# Data taken from the supplement of paper PMC8728848.
# The list shows a part of the results.
# Columns and labels:
# Test in all cases: glycan array binding signal (z-score within array); higher = stronger binding
# Conditions in all cases: glycan notation: IUPAC condensed, linker removed
# [1] = biological target: Neu5Ac(a2-6)Gal(b1-4)GlcNAc(b1-3)Gal(b1-4)GlcNAc(b1-3)Gal(b1-4)GlcNAc(b1-2)Man(a1-3)[Neu5Ac(a2-6)Gal(b1-4)GlcNAc(b1-3)Gal(b1-4)GlcNAc(b1-3)Gal(b1-4)GlcNAc(b1-2)Man(a1-6)]GalNAc
# How it was run: (§1)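 The binding signal is a Z-score computed within each array and averaged over linkers. Arrays of the same protein sequence at different concentrations or buffers were also averaged together. Data originate from 3228 arrays in the Consortium for Functional Glycomics database, kept only where the protein sequence was available.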
# [2] = biological target: Neu5Ac(a2-6)Gal(b1-4)GlcNAc(b1-3)Gal(b1-4)GlcNAc(b1-3)GalNAc
# How it was run: as §1
# [3] = biological target: Neu5Ac(a2-6)Gal(b1-4)GlcNAc(b1-3)Gal(b1-4)GlcNAc(b1-3)[Neu5Ac(a2-6)Gal(b1-4)GlcNAc(b1-3)Gal(b1-4)GlcNAc(b1-6)]GalNAc
# How it was run: as §1
# [4] = biological target: Neu5Ac(a2-6)Gal(b1-4)GlcNAc(b1-3)Gal(b1-4)GlcNAc(b1-6)[Gal(b1-3)]GalNAc
# How it was run: as §1
# [5] = biological target: Neu5Ac(a2-6)Gal(b1-4)GlcNAc(b1-3)Gal(b1-4)[Fuc(a1-3)]GlcNAc(b1-3)Gal(b1-4)[Fuc(a1-3)]GlcNAc
# How it was run: as §1
# [6] = biological target: Neu5Ac(a2-6)Gal(b1-4)GlcNAc(b1-3)GalNAc
# How it was run: as §1
# [7] = biological target: Neu5Ac(a2-6)Gal(b1-4)GlcNAc(b1-3)[Neu5Ac(a2-6)Gal(b1-4)GlcNAc(b1-6)]GalNAc
# How it was run: as §1
# [8] = biological target: Neu5Ac(a2-6)Gal(b1-4)GlcNAc(b1-6)GalNAc
# How it was run: as §1
# [9] = biological target: Neu5Ac(a2-6)Gal(b1-4)GlcNAc(b1-6)[Gal(b1-3)GlcNAc(b1-3)]Gal(b1-4)Glc
# How it was run: as §1
# [10] = biological target: Neu5Ac(a2-6)Gal(b1-4)GlcNAc(b1-6)[Gal(b1-3)]GalNAc
# How it was run: as §1
# [11] = biological target: Neu5Ac(a2-6)Gal(b1-4)GlcNAc6S
# How it was run: as §1
# [12] = biological target: Neu5Ac(a2-6)GalNAc
# How it was run: as §1
# [13] = biological target: Neu5Ac(a2-6)GalNAc(b1-4)GlcNAc
# How it was run: as §1
# [14] = biological target: Neu5Ac(a2-6)GalNAc(b1-4)GlcNAc6S
# How it was run: as §1
# [15] = biological target: Neu5Ac(a2-6)GlcNAc(b1-4)GlcNAc
# How it was run: as §1
# [16] = biological target: Neu5Ac(a2-6)GlcNAc(b1-4)GlcNAc(b1-4)GlcNAc
# How it was run: as §1
# [17] = biological target: Neu5Ac(a2-8)Neu5Ac
# How it was run: as §1
# [18] = biological target: Neu5Ac(a2-8)Neu5Ac(a2-3)Gal(b1-3)GalNAc(b1-4)[Neu5Ac(a2-3)]Gal(b1-4)Glc
# How it was run: as §1
# [19] = biological target: Neu5Ac(a2-8)Neu5Ac(a2-3)Gal(b1-3)GalNAc(b1-4)[Neu5Ac(a2-8)Neu5Ac(a2-3)]Gal(b1-4)Glc
# How it was run: as §1
# [20] = biological target: Neu5Ac(a2-8)Neu5Ac(a2-3)Gal(b1-4)Glc
# How it was run: as §1
# [21] = biological target: Neu5Ac(a2-8)Neu5Ac(a2-3)Gal(b1-4)GlcNAc
# How it was run: as §1
# [22] = biological target: Neu5Ac(a2-8)Neu5Ac(a2-3)[Gal(b1-3)GalNAc(b1-4)]Gal(b1-4)Glc
# How it was run: as §1
# [23] = biological target: Neu5Ac(a2-8)Neu5Ac(a2-3)[GalNAc(b1-4)]Gal(b1-4)Glc
# How it was run: as §1
# [24] = biological target: Neu5Ac(a2-8)Neu5Ac(a2-8)Neu5Ac
# How it was run: as §1
# [25] = biological target: Neu5Ac(a2-8)Neu5Ac(a2-8)Neu5Ac(a2-3)Gal(b1-4)Glc
# How it was run: as §1
# [26] = biological target: Neu5Ac(a2-8)Neu5Ac(a2-8)Neu5Ac(a2-3)[Gal(b1-3)GalNAc(b1-4)]Gal(b1-4)Glc
# How it was run: as §1
# [27] = biological target: Neu5Ac(a2-8)Neu5Ac(a2-8)Neu5Ac(a2-3)[GalNAc(b1-4)]Gal(b1-4)Glc
# How it was run: as §1
# [28] = biological target: Neu5Ac(a2-8)Neu5Ac(a2-8)Neu5Ac(a2-8)Neu5Ac(a2-3)[GalNAc(b1-4)]Gal(b1-4)Glc
# How it was run: as §1
# [29] = biological target: Neu5Ac(a2-8)Neu5Gc(a2-3)Gal(b1-4)GlcNAc
# How it was run: as §1
# [30] = biological target: Neu5Ac(b2-6)Gal(b1-4)GlcNAc
# How it was run: as §1
# [31] = biological target: Neu5Ac(b2-6)GalNAc
# How it was run: as §1
# [32] = biological target: Neu5Ac9Ac(a2-3)Gal(b1-3)GlcNAc
# How it was run: as §1
# [33] = biological target: Neu5Ac9Ac(a2-3)Gal(b1-4)GlcNAc
# How it was run: as §1
# [34] = biological target: Neu5Ac9Ac(a2-6)Gal(b1-4)GlcNAc
# How it was run: as §1
# [35] = biological target: Neu5Gc(a2-3)Gal(b1-3)GlcNAc
# How it was run: as §1
# [36] = biological target: Neu5Gc(a2-3)Gal(b1-3)[Fuc(a1-4)]GlcNAc
# How it was run: as §1
# [37] = biological target: Neu5Gc(a2-3)Gal(b1-4)Glc
# How it was run: as §1
# [38] = biological target: Neu5Gc(a2-3)Gal(b1-4)GlcNAc
# How it was run: as §1
# [39] = biological target: Neu5Gc(a2-3)Gal(b1-4)GlcNAc(b1-3)Gal(b1-4)GlcNAc(b1-2)Man(a1-3)[Neu5Gc(a2-3)Gal(b1-4)GlcNAc(b1-3)Gal(b1-4)GlcNAc(b1-2)Man(a1-6)]Man(b1-4)GlcNAc(b1-4)GlcNAc
# How it was run: as §1
# [40] = biological target: Neu5Gc(a2-3)Gal(b1-4)[Fuc(a1-3)]GlcNAc
# How it was run: as §1
# [41] = biological target: Neu5Gc(a2-6)Gal(b1-4)GlcNAc
# How it was run: as §1
# [42] = biological target: Neu5Gc(a2-6)GalNAc
# How it was run: as §1
# [43] = biological target: Neu5Gc(a2-8)Neu5Ac(a2-3)Gal(b1-4)GlcNAc
# How it was run: as §1
# [44] = biological target: Neu5Gc(a2-8)Neu5Gc(a2-3)Gal(b1-4)GlcNAc
# How it was run: as §1
# [45] = biological target: Neu5Gc(a2-8)Neu5Gc(a2-3)Gal(b1-4)GlcNAc(b1-3)Gal(b1-4)GlcNAc
# How it was run: as §1
# [46] = biological target: Neu5Gc(a2-8)Neu5Gc(a2-6)Gal(b1-4)GlcNAc
# How it was run: as §1
# [47] = biological target: Neu5Gc(b2-6)Gal(b1-4)GlcNAc
# How it was run: as §1
binder,measurement,setting,value
"HA-11100 (Pseudomonas aeruginosa), Q02G51_PSEAB (protein) QFNPNEIKISQQGKTTLIDQSTQRAIINWKGFDVSADEAVRFNQPGVTSSTLNRVTAGQESVIAGRISAPGQVIIYNSNGVVFSGSAKVDVGSLITTTANISDEHFRQGKLIFDQPGNPDARIVNDGSISVAEKGLAAFVAPSVANNGVINARLGTVAMAAGNAATIDLYG",glycan array binding signal (z-score),[1],3.17
same,glycan array binding signal (z-score),[2],-0.208
same,glycan array binding signal (z-score),[3],-0.23
same,glycan array binding signal (z-score),[4],-0.286
same,glycan array binding signal (z-score),[5],-0.369
same,glycan array binding signal (z-score),[6],1.24
same,glycan array binding signal (z-score),[7],-0.321
same,glycan array binding signal (z-score),[8],0.24
same,glycan array binding signal (z-score),[9],0.1
same,glycan array binding signal (z-score),[10],-0.027
same,glycan array binding signal (z-score),[11],-0.401
same,glycan array binding signal (z-score),[12],-0.112
same,glycan array binding signal (z-score),[13],-0.851
same,glycan array binding signal (z-score),[14],-0.012
same,glycan array binding signal (z-score),[15],-0.421
same,glycan array binding signal (z-score),[16],-0.181
same,glycan array binding signal (z-score),[17],-0.498
same,glycan array binding signal (z-score),[18],-0.567
same,glycan array binding signal (z-score),[19],-0.444
same,glycan array binding signal (z-score),[20],-0.649
same,glycan array binding signal (z-score),[21],-0.312
same,glycan array binding signal (z-score),[22],0.057
same,glycan array binding signal (z-score),[23],-0.281
same,glycan array binding signal (z-score),[24],-0.333
same,glycan array binding signal (z-score),[25],-0.262
same,glycan array binding signal (z-score),[26],-0.621
same,glycan array binding signal (z-score),[27],-0.213
same,glycan array binding signal (z-score),[28],-0.312
same,glycan array binding signal (z-score),[29],-0.589
same,glycan array binding signal (z-score),[30],-0.196
same,glycan array binding signal (z-score),[31],-0.167
same,glycan array binding signal (z-score),[32],-0.076
same,glycan array binding signal (z-score),[33],-0.238
same,glycan array binding signal (z-score),[34],-0.383
same,glycan array binding signal (z-score),[35],-0.495
same,glycan array binding signal (z-score),[36],-0.618
same,glycan array binding signal (z-score),[37],-0.159
same,glycan array binding signal (z-score),[38],-0.399
same,glycan array binding signal (z-score),[39],-0.535
same,glycan array binding signal (z-score),[40],-0.065
same,glycan array binding signal (z-score),[41],-0.377
same,glycan array binding signal (z-score),[42],0.697
same,glycan array binding signal (z-score),[43],-0.268
same,glycan array binding signal (z-score),[44],-0.067
same,glycan array binding signal (z-score),[45],-0.07
same,glycan array binding signal (z-score),[46],-0.505
same,glycan array binding signal (z-score),[47],-0.376
